From the supplement of paper PMC8728848
The other results are listed elsewhere or left out.

What was measured:
Assay in all cases: glycan array binding signal (z-score within array); higher = stronger binding
Settings in all cases: glycan notation: IUPAC condensed, linker removed
[1] = molecular target: GlcNAc(b1-3)Gal(b1-3)GalNAc
Procedure, shortened: (§1)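 From the Consortium for Functional Glycomics database, 3228 arrays were curated, keeping only those whose protein sequence was available. Binding is given as a within-array Z-score averaged across arrays sharing a protein sequence and across linkers. Negative Z-scores can be read as non-binding.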

GlcNAc(b1-3)Gal(b1-4)Glc = molecular target: GlcNAc(b1-3)Gal(b1-4)Glc
Procedure, shortened: as §1

[2] = molecular target: GlcNAc(b1-3)Gal(b1-4)GlcNAc
Procedure, shortened: as §1

[3] = molecular target: GlcNAc(b1-3)Gal(b1-4)GlcNAc(b1-2)Man(a1-3)[GlcNAc(b1-3)Gal(b1-4)GlcNAc(b1-2)Man(a1-6)]Man(b1-4)GlcNAc(b1-4)GlcNAc
Procedure, shortened: as §1

[4] = molecular target: GlcNAc(b1-3)Gal(b1-4)GlcNAc(b1-2)Man(a1-3)[GlcNAc(b1-3)Gal(b1-4)GlcNAc(b1-2)Man(a1-6)]Man(b1-4)GlcNAc(b1-4)[Fuc(a1-6)]GlcNAc
Procedure, shortened: as §1

[5] = molecular target: GlcNAc(b1-3)Gal(b1-4)GlcNAc(b1-2)[GlcNAc(b1-3)Gal(b1-4)GlcNAc(b1-6)]Man(a1-6)[GlcNAc(b1-3)Gal(b1-4)GlcNAc(b1-2)Man(a1-3)]Man(b1-4)GlcNAc(b1-4)GlcNAc
Procedure, shortened: as §1

[6] = molecular target: GlcNAc(b1-3)Gal(b1-4)GlcNAc(b1-3)Gal(b1-4)GlcNAc
Procedure, shortened: as §1

[7] = molecular target: GlcNAc(b1-3)Gal(b1-4)GlcNAc(b1-3)Gal(b1-4)GlcNAc(b1-2)Man(a1-3)[GlcNAc(b1-3)Gal(b1-4)GlcNAc(b1-3)Gal(b1-4)GlcNAc(b1-2)Man(a1-6)]Man(b1-4)GlcNAc(b1-4)GlcNAc
Procedure, shortened: as §1

[8] = molecular target: GlcNAc(b1-3)Gal(b1-4)GlcNAc(b1-3)Gal(b1-4)GlcNAc(b1-2)Man(a1-3)[GlcNAc(b1-3)Gal(b1-4)GlcNAc(b1-3)Gal(b1-4)GlcNAc(b1-2)Man(a1-6)]Man(b1-4)GlcNAc(b1-4)[Fuc(a1-6)]GlcNAc
Procedure, shortened: as §1

[9] = molecular target: GlcNAc(b1-3)Gal(b1-4)GlcNAc(b1-3)Gal(b1-4)GlcNAc(b1-2)[GlcNAc(b1-3)Gal(b1-4)GlcNAc(b1-3)Gal(b1-4)GlcNAc(b1-6)]Man(a1-6)[GlcNAc(b1-3)Gal(b1-4)GlcNAc(b1-3)Gal(b1-4)GlcNAc(b1-2)Man(a1-3)]Man(b1-4)GlcNAc(b1-4)[Fuc(a1-6)]GlcNAc
Procedure, shortened: as §1

[10] = molecular target: GlcNAc(b1-3)Gal(b1-4)GlcNAc(b1-3)Gal(b1-4)GlcNAc(b1-3)Gal(b1-4)GlcNAc(b1-2)Man(a1-3)[GlcNAc(b1-3)Gal(b1-4)GlcNAc(b1-3)Gal(b1-4)GlcNAc(b1-3)Gal(b1-4)GlcNAc(b1-2)Man(a1-6)]Man(b1-4)GlcNAc(b1-4)GlcNAc
Procedure, shortened: as §1

[11] = molecular target: GlcNAc(b1-3)Gal(b1-4)GlcNAc(b1-3)Gal(b1-4)GlcNAc(b1-3)Gal(b1-4)GlcNAc(b1-2)Man(a1-3)[GlcNAc(b1-3)Gal(b1-4)GlcNAc(b1-3)Gal(b1-4)GlcNAc(b1-3)Gal(b1-4)GlcNAc(b1-2)Man(a1-6)]Man(b1-4)GlcNAc(b1-4)[Fuc(a1-6)]GlcNAc
Procedure, shortened: as §1

[12] = molecular target: GlcNAc(b1-3)Gal(b1-4)GlcNAc(b1-3)Gal(b1-4)GlcNAc(b1-3)Gal(b1-4)GlcNAc(b1-2)[GlcNAc(b1-3)Gal(b1-4)GlcNAc(b1-3)Gal(b1-4)GlcNAc(b1-3)Gal(b1-4)GlcNAc(b1-6)]Man(a1-6)[GlcNAc(b1-3)Gal(b1-4)GlcNAc(b1-3)Gal(b1-4)GlcNAc(b1-3)Gal(b1-4)GlcNAc(b1-2)Man(a1-3)]Man(b1-4)GlcNAc(b1-4)[Fuc(a1-6)]GlcNAc
Procedure, shortened: as §1

[13] = molecular target: GlcNAc(b1-3)Gal(b1-4)GlcNAc(b1-3)Gal(b1-4)GlcNAc(b1-3)Gal(b1-4)GlcNAc(b1-3)Gal(b1-4)GlcNAc(b1-2)Man(a1-3)[GlcNAc(b1-3)Gal(b1-4)GlcNAc(b1-3)Gal(b1-4)GlcNAc(b1-3)Gal(b1-4)GlcNAc(b1-3)Gal(b1-4)GlcNAc(b1-2)Man(a1-6)]Man(b1-4)GlcNAc(b1-4)GlcNAc
Procedure, shortened: as §1

[14] = molecular target: GlcNAc(b1-3)Gal(b1-4)GlcNAc(b1-3)Gal(b1-4)GlcNAc(b1-3)Gal(b1-4)GlcNAc(b1-3)Gal(b1-4)GlcNAc(b1-2)Man(a1-3)[GlcNAc(b1-3)Gal(b1-4)GlcNAc(b1-3)Gal(b1-4)GlcNAc(b1-3)Gal(b1-4)GlcNAc(b1-3)Gal(b1-4)GlcNAc(b1-2)Man(a1-6)]Man(b1-4)GlcNAc(b1-4)[Fuc(a1-6)]GlcNAc
Procedure, shortened: as §1

[15] = molecular target: GlcNAc(b1-3)Gal(b1-4)GlcNAc(b1-3)Gal(b1-4)GlcNAc(b1-3)Gal(b1-4)GlcNAc(b1-3)Gal(b1-4)GlcNAc(b1-2)[GlcNAc(b1-3)Gal(b1-4)GlcNAc(b1-3)Gal(b1-4)GlcNAc(b1-3)Gal(b1-4)GlcNAc(b1-3)Gal(b1-4)GlcNAc(b1-6)]Man(a1-6)[GlcNAc(b1-3)Gal(b1-4)GlcNAc(b1-3)Gal(b1-4)GlcNAc(b1-3)Gal(b1-4)GlcNAc(b1-3)Gal(b1-4)GlcNAc(b1-2)Man(a1-3)]Man(b1-4)GlcNAc(b1-4)[Fuc(a1-6)]GlcNAc
Procedure, shortened: as §1

[16] = molecular target: GlcNAc(b1-3)Gal(b1-4)GlcNAc(b1-3)Gal(b1-4)GlcNAc(b1-3)GalNAc
Procedure, shortened: as §1

[17] = molecular target: GlcNAc(b1-3)Gal(b1-4)GlcNAc(b1-3)GalNAc
Procedure, shortened: as §1

[18] = molecular target: GlcNAc(b1-3)Gal(b1-4)GlcNAc(b1-3)[GlcNAc(b1-3)Gal(b1-4)GlcNAc(b1-3)]GalNAc
Procedure, shortened: as §1

[19] = molecular target: GlcNAc(b1-3)Gal(b1-4)GlcNAc(b1-6)[Gal(b1-3)]GalNAc
Procedure, shortened: as §1

[20] = molecular target: GlcNAc(b1-3)Gal(b1-4)GlcNAc(b1-6)[GlcNAc(b1-3)Gal(b1-3)]GalNAc
Procedure, shortened: as §1

[21] = molecular target: GlcNAc(b1-3)Gal(b1-4)GlcNAc(b1-6)[GlcNAc(b1-3)]Gal(b1-4)GlcNAc
Procedure, shortened: as §1

GlcNAc(b1-3)GalNAc = molecular target: GlcNAc(b1-3)GalNAc
Procedure, shortened: as §1

GlcNAc(b1-3)Man = molecular target: GlcNAc(b1-3)Man
Procedure, shortened: as §1

[22] = molecular target: GlcNAc(b1-3)[GlcNAc(b1-4)][GlcNAc(b1-6)]GlcNAc
Procedure, shortened: as §1

[23] = molecular target: GlcNAc(b1-3)[GlcNAc(b1-6)]Gal(b1-4)GlcNAc
Procedure, shortened: as §1

[24] = molecular target: GlcNAc(b1-3)[GlcNAc(b1-6)]GalNAc
Procedure, shortened: as §1

[25] = molecular target: GlcNAc(b1-4)Gal(b1-4)GlcNAc
Procedure, shortened: as §1

GlcNAc(b1-4)GlcNAc = molecular target: GlcNAc(b1-4)GlcNAc
Procedure, shortened: as §1

[26] = molecular target: GlcNAc(b1-4)GlcNAc(b1-4)GlcNAc
Procedure, shortened: as §1

[27] = molecular target: GlcNAc(b1-4)GlcNAc(b1-4)GlcNAc(b1-4)GlcNAc(b1-4)GlcNAc
Procedure, shortened: as §1

[28] = molecular target: GlcNAc(b1-4)GlcNAc(b1-4)GlcNAc(b1-4)GlcNAc(b1-4)GlcNAc(b1-4)GlcNAc
Procedure, shortened: as §1

[29] = molecular target: GlcNAc(b1-4)[GlcNAc(b1-6)]GalNAc
Procedure, shortened: as §1

[30] = molecular target: GlcNAc(b1-6)Gal(b1-4)GlcNAc
Procedure, shortened: as §1

GlcNAc(b1-6)GalNAc = molecular target: GlcNAc(b1-6)GalNAc
Procedure, shortened: as §1

[31] = molecular target: GlcNAc6S(b1-3)Gal(b1-4)GlcNAc
Procedure, shortened: as §1

Kdn(a2-3)Gal(b1-3)GalNAc = molecular target: Kdn(a2-3)Gal(b1-3)GalNAc
Procedure, shortened: as §1

Kdn(a2-3)Gal(b1-3)GlcNAc = molecular target: Kdn(a2-3)Gal(b1-3)GlcNAc
Procedure, shortened: as §1

Kdn(a2-3)Gal(b1-4)Glc = molecular target: Kdn(a2-3)Gal(b1-4)Glc
Procedure, shortened: as §1

Kdn(a2-3)Gal(b1-4)GlcNAc = molecular target: Kdn(a2-3)Gal(b1-4)GlcNAc
Procedure, shortened: as §1

[32] = molecular target: Kdn(a2-3)Gal(b1-4)[Fuc(a1-3)]GlcNAc
Procedure, shortened: as §1

Kdn(a2-6)Gal(b1-4)GlcNAc = molecular target: Kdn(a2-6)Gal(b1-4)GlcNAc
Procedure, shortened: as §1

[33] = molecular target: Man(a1-2)Man(a1-2)Man(a1-3)Man
Procedure, shortened: as §1

[34] = molecular target: Man(a1-2)Man(a1-2)Man(a1-6)[Man(a1-3)]Man
Procedure, shortened: as §1

Man(a1-2)Man(a1-3)Man = molecular target: Man(a1-2)Man(a1-3)Man
Procedure, shortened: as §1

B1: Clec2 (Mus musculus), Q9JL99 (protein)
chain: MQDEDGYITLNIKPRKQALSSAEPASSWWRVMALVLLISSMGLVVGLVALGIMSVTQQKYLLAEKENLSATLQQLAKKFCQELIRQSEIKTKSTFEHKCSPCATKWRYHGDSCYGFFRRNLTWEESKQYCTEQNATLVKTASQSTLDYIAERITSVRWIGLSRQNSKKDWMWEDSSVLRKNGINLSGNTEENMNCAYLHNGKIHPASCKERHYLICERNAGMTRVDQLL
- glycan array binding signal (z-score) [1]: -0.055
- glycan array binding signal (z-score) (GlcNAc(b1-3)Gal(b1-4)Glc): -0.466
- glycan array binding signal (z-score) [2]: -0.827
- glycan array binding signal (z-score) [3]: -0.5
- glycan array binding signal (z-score) [4]: -0.399
- glycan array binding signal (z-score) [5]: 0.552
- glycan array binding signal (z-score) [6]: -0.629
- glycan array binding signal (z-score) [7]: 0.288
- glycan array binding signal (z-score) [8]: -0.438
- glycan array binding signal (z-score) [9]: 0.177
- glycan array binding signal (z-score) [10]: -0.124
- glycan array binding signal (z-score) [11]: -0.184
- glycan array binding signal (z-score) [12]: -0.477
- glycan array binding signal (z-score) [13]: -0.158
- glycan array binding signal (z-score) [14]: -0.617
- glycan array binding signal (z-score) [15]: -0.532
- glycan array binding signal (z-score) [16]: -0.757
- glycan array binding signal (z-score) [17]: -0.462
- glycan array binding signal (z-score) [18]: -0.342
- glycan array binding signal (z-score) [19]: -0.441
- glycan array binding signal (z-score) [20]: -0.667
- glycan array binding signal (z-score) [21]: -0.898
- glycan array binding signal (z-score) (GlcNAc(b1-3)GalNAc): -0.315
- glycan array binding signal (z-score) (GlcNAc(b1-3)Man): -0.457
- glycan array binding signal (z-score) [22]: -0.395
- glycan array binding signal (z-score) [23]: 0.143
- glycan array binding signal (z-score) [24]: -0.584
- glycan array binding signal (z-score) [25]: 0.033
- glycan array binding signal (z-score) (GlcNAc(b1-4)GlcNAc): -0.489
- glycan array binding signal (z-score) [26]: -0.592
- glycan array binding signal (z-score) [27]: -0.45
- glycan array binding signal (z-score) [28]: -0.123
- glycan array binding signal (z-score) [29]: -0.081
- glycan array binding signal (z-score) [30]: -0.639
- glycan array binding signal (z-score) (GlcNAc(b1-6)GalNAc): -0.52
- glycan array binding signal (z-score) [31]: -0.865
- glycan array binding signal (z-score) (Kdn(a2-3)Gal(b1-3)GalNAc): -0.377
- glycan array binding signal (z-score) (Kdn(a2-3)Gal(b1-3)GlcNAc): 0.073
- glycan array binding signal (z-score) (Kdn(a2-3)Gal(b1-4)Glc): -0.279
- glycan array binding signal (z-score) (Kdn(a2-3)Gal(b1-4)GlcNAc): -0.478
- glycan array binding signal (z-score) [32]: 0.043
- glycan array binding signal (z-score) (Kdn(a2-6)Gal(b1-4)GlcNAc): -0.309
- glycan array binding signal (z-score) [33]: 2.06
- glycan array binding signal (z-score) [34]: -0.215
- glycan array binding signal (z-score) (Man(a1-2)Man(a1-3)Man): -0.608
